FireProtDB (doi:10.1016/0014-5793(95)00846-2)

Details: Gallus gallus; pH 9.5; 20 °C; Thermal; CD; sodium carbonate 50 mM; reversible: Unknown

Q: With “Lysozyme C wild type (sequence left out)” as the substance, how does the unfolding free energy read?
A: Its unfolding free energy is 12.7 kcal/mol.
